In the supplement of paper PMC7826260:
This is one part of the list. Viral Rep nickase domains cut single-stranded DNA in vitro for 1 h at 37 °C with 3 µM enzyme; only the middle of the 90-letter strands is printed. The score is log2 (uncut reads / reads without enzyme); strong cutting gives strongly negative numbers. There is no active / inactive call. Because reads are shares of a total, they shift together; where an enzyme cuts many sequences, the uncut ones exceed 0.

Key:
Assay in all cases: uncleaved DNA left, log2 of reads against the no-enzyme library (log2 ratio); higher = less cleavage (more negative = more Rep cleavage of the k-mer); sequences stand for … in CTCGTCCG…ACCGGAGA
[1] = test system: T1, Rep nickase domain of Muscovy duck circovirus
T1 sequence (Rep 1-111, printed without the tag): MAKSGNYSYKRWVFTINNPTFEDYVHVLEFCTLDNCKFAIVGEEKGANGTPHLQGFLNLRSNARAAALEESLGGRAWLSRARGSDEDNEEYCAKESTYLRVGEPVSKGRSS
Description: (§1)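 A pool of 90-nt single-stranded DNAs with seven random bases just before the constant AC of the nick site (name = the seven bases) was cut by 3 µM recombinant His6-SUMO-tagged Rep nickase domain (300 nM DNA, 50 mM HEPES pH 8.0, 50 mM NaCl, 1 mM MnCl2, 1 h, 37 °C, three replicates). Uncut DNA was amplified and sequenced.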

[2] = test system: T2, Rep nickase domain of banana bunchy top virus
T2 sequence (Rep 1-94, printed without the tag): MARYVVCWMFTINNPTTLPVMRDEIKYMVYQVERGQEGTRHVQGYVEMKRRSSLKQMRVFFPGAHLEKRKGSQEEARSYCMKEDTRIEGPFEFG
Description: as §1

[3] = test system: T3, Rep nickase domain of cabbage leaf curl virus
T3 sequence (Rep 1-116, printed without the tag): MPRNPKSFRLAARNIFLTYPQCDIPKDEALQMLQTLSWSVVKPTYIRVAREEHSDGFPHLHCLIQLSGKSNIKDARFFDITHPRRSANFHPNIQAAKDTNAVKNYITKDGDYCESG
Description: as §1

[4] = test system: T4, Rep nickase domain of chickpea chlorotic dwarf virus
T4 sequence (Rep 1-124, printed without the tag): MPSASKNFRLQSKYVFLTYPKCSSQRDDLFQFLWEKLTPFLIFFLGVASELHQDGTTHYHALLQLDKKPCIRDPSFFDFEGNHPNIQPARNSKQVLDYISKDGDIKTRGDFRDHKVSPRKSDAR
Description: as §1

[5] = test system: T5, Rep nickase domain of faba bean necrotic yellows virus
T5 sequence (Rep 1-98, printed without the tag): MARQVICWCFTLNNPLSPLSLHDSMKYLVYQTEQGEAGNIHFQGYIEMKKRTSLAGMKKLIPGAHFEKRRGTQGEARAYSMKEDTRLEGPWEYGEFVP
Description: as §1

[6] = test system: T6, Rep nickase domain of maize striate mosaic virus
T6 sequence (Rep 1-117, printed without the tag): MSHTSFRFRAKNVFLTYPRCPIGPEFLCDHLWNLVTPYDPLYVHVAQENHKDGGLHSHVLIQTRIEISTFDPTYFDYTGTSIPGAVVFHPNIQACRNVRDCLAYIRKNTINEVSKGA
Description: as §1

[7] = test system: T7, Rep nickase domain of porcine circovirus 2
T7 sequence (Rep 2-116, printed without the tag): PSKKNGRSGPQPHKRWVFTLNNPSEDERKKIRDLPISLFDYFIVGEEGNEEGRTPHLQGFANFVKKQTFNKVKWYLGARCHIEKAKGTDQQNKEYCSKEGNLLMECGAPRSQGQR
Description: as §1

[8] = test system: T8, Rep nickase domain of tomato golden mosaic virus
T8 sequence (Rep 1-124, printed without the tag): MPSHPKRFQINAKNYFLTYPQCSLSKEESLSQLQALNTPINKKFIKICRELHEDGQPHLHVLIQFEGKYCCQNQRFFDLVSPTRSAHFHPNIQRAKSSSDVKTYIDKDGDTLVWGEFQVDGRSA
Description: as §1

[9] = test system: T9, Rep nickase domain of tomato yellow leaf curl virus
T9 sequence (Rep 1-136, printed without the tag): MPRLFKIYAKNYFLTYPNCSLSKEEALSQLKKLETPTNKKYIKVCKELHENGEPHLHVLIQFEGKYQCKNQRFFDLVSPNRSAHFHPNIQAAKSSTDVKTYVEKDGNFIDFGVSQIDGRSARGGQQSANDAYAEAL
Description: as §1

[10] = test system: T10, Rep nickase domain of wheat dwarf virus
T10 sequence (Rep 1-137, printed without the tag): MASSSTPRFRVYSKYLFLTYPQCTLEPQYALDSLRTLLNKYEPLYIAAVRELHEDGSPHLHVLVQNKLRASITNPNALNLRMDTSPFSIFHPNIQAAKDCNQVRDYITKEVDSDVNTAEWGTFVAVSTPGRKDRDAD
Description: as §1

Sequence	uncleaved DNA left (log2) [1]	uncleaved DNA left (log2) [2]	uncleaved DNA left (log2) [3]	uncleaved DNA left (log2) [4]	uncleaved DNA left (log2) [5]	uncleaved DNA left (log2) [6]	uncleaved DNA left (log2) [7]	uncleaved DNA left (log2) [8]	uncleaved DNA left (log2) [9]	uncleaved DNA left (log2) [10]
AACGGCA	0.0658	-0.0117	-0.107	-0.437	-0.0731	-0.53	-0.291	-0.0283	0.0379	0.0458
CCTCGGA	0.0413	-0.0232	0.124	0.446	0.00245	0.21	0.092	-0.027	-0.0236	-0.0479
CCGAAAG	-0.00301	-0.028	-0.536	-0.418	0.0939	-0.961	0.17	0.0957	0.0887	-0.215
CTAAACG	-0.0362	-0.125	-0.868	-0.174	-0.0198	-1.05	0.235	-0.102	-0.127	-0.0354
GTCTTAT	0.0553	0.00467	0.385	0.776	-0.0647	1.79	-0.0189	0.109	-0.0614	0.075
ATAACTA	-0.0375	0.0505	-0.353	-2.14	-0.000578	-0.704	-0.123	0.0427	-0.0279	-0.0251
GGATTGG	-0.0751	-0.0324	-0.288	-0.204	0.00747	-0.7	-0.00735	-0.143	-0.0592	-0.144
AGTGCTG	-0.0484	0.0306	0.0415	0.695	-0.145	1.6	0.0203	0.0745	-0.139	-0.0339
GAGGATT	0.164	0.269	0.712	1.47	0.145	2.06	-0.712	0.186	0.189	0.289
GACGACT	0.0156	-0.00122	0.0874	0.407	-0.121	1.58	-0.102	-0.127	-0.0994	0.0153
AGGTGCC	-0.0572	-0.0403	-0.0968	0.00347	-0.169	-0.495	0.0386	-0.0767	-0.0164	-0.0649
CTGGCTG	0.0576	0.0268	0.19	0.859	0.0238	1.46	0.148	0.0576	-0.0738	-0.0107
TGGGTCA	-0.0126	0.155	0.832	1.81	-0.0171	2.23	0.208	0.0953	0.0932	0.162
CCTCCTC	-0.0512	-0.0419	0.128	-0.154	-0.0984	-0.149	-0.0977	-0.0681	-0.00095	-0.0416
CCTTCGC	0.0443	-0.137	-0.755	-0.876	-0.0788	-1.08	-0.0504	-0.205	-0.123	-0.167
ACTGGGG	-0.0256	0.107	0.44	0.852	0.131	0.563	0.231	0.169	-0.0311	0.104
GTCGAAG	-0.153	0.0281	0.183	0.713	-0.0138	1.66	0.061	0.0983	0.00713	-0.0229
GACGATT	0.197	-0.0607	0.402	-1.32	0.0896	1.39	-0.36	-0.0442	0.00806	0.161
TTTATCC	-0.0167	0.0347	0.176	-0.0436	0.0194	-0.229	0.0435	-0.0854	0.0611	0.00652
GTTCCTC	-0.0234	0.172	0.44	0.884	-0.00484	1.64	0.0771	0.0667	0.205	0.14
AATGCGT	-0.12	-0.0714	-0.912	0.121	0.0963	-0.854	0.0298	-0.126	-0.0202	-0.121
CGGACAC	0.0253	-0.0489	0.747	1.76	-0.0858	2.14	0.158	-0.132	-0.0721	0.0457
GGGGACC	0.0497	0.106	0.714	1.85	0.0378	2.17	0.191	-0.0277	0.0634	0.0985
AGCGGCA	-0.121	-0.023	-0.034	0.58	-0.0672	1.23	0.0379	0.0215	-0.0285	-0.037
TTAACTT	-0.0764	-0.0829	-0.306	-2.58	0.0631	-0.0652	-0.417	-0.114	0.125	-0.0622
AATCGGT	0.0985	0.0261	0.25	0.843	-0.0345	1.17	-0.105	0.0797	-0.0885	0.122
TTGCCGT	-0.00273	-0.102	-0.814	-0.616	0.0444	-1.06	-0.175	-0.275	-0.021	-0.0404
GTAAGAA	0.0304	0.0506	0.2	0.554	0.109	1.22	0.153	0.0433	-0.0152	0.0956
GGATTCC	-0.0909	0.0108	0.592	1.41	-0.129	1.88	-0.074	-0.0696	0.0581	0.0177
AACTACT	-3.57	-3.41	-2.63	-3.1	-0.624	-1.06	-4.06	-0.451	0.0484	-0.426
